Measurements published in PubChem BioAssay AID1508623 (National Center for Advancing Translational Sciences (NCATS), 2021).
In all, about 48,000 compounds went through this assay and about 450 (0.94%) were called active. Not shown: some 19% with an inconclusive outcome. The call rests on the fitted dose curve; in most records, active means well fitted inhibition curve with a large enough effect; inconclusive means small, poorly fitted or top-dose-only effect; inactive means no such curve, though single readings can be large or run the other way. The list shows a part of the results.

Experiment: Primary qHTS for Identification of Small Molecule Inhibitors of Huntingtin Promoter Activity; further: nearly all actives have a fitted effect of over 50% in size
Details: HEK293 HTT promoter firefly luciferase reporter (activity 0% = vehicle and -100% = no light), 24 h; series mostly up to 57.5 µM; activity change, negative = inhibition: at the top concentration
Outline: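 Quantitative HTS used concentration series of up to 57.5 uM final on HEK293 luciferase reporter cells, 24 h at 37 degrees C. Readout was Dual-Glo firefly luminescence.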

Row | SMILES | activity change, negative = inhibition
1 | COc1cc(NC(=O)c2noc3c2CSc2ccccc2-3)cc(OC)c1OC | inactive: -25.6%
2 | Cc1ccn2c(=O)cc(CSc3nnc(NC(=O)c4ccccc4Cl)s3)nc2c1 | inactive: 9.67%
3 | COc1cc(C(=O)Nc2nc3nc(-c4ccccc4)cc(=O)n3[nH]2)cc(OC)c1OC | inactive: -15.1%
4 | COc1ccc(CNC(=O)c2cc3c(=O)[nH]c4ccccc4c3s2)cc1 | inactive: -6.32%
5 | Cc1cccc(N2CCN(C(=O)NCc3noc4ccccc34)CC2)c1C | inactive: -9.74%
6 | CCOC(=O)c1ccccc1NC(=O)CCOc1ccccc1 | inactive: 33%
7 | O=C(NC1CCCCC1)c1cc2c(Cl)nc3ccccc3c2s1 | inactive: 4.08%
8 | CCOc1ccc(NC(=O)C(NS(=O)(=O)c2cccc3nsnc23)c2ccccc2)cc1 (stereo not given) | inactive: -11.8%
9 | COc1ccccc1CNC(=O)C(=O)NCC(c1ccco1)S(=O)(=O)c1cccs1 (stereo not given) | inactive: -17.1%
10 | OCCCc1nc2ccccc2n1CCCCOc1ccccc1 | inactive: -30.9%
11 | Cc1cccc(-c2noc(CN(C(=O)COc3ccc(Br)cc3C)C(C)C)n2)c1 | inactive: -29%
12 | O=C(CCN1CCN(CCO)CC1)N1c2ccccc2Sc2ccc(C(F)(F)F)cc21 | inactive: 2.35%
13 | CCn1cc(C(=O)N2CCN(c3cc(C)ccc3C)CC2)c(=O)c2cc(S(=O)(=O)N3CCOCC3)ccc21 | inactive: 3.34%
14 | CCOC(=O)c1c(N)n(-c2cccc(OC)c2)c2nc3ccccc3nc12 | inactive: -2.78%
15 | Cc1ccc(C)n1-c1c(C(=O)NCCC(C)C)sc2ncccc12 | inactive: -26.6%
16 | Cc1oc2ncn(CC(C)C)c(=O)c2c1C(=O)N1CCN(c2cccc(C(F)(F)F)c2)CC1 | inactive: -32.3%
17 | Cc1cccc(-n2ncc3c(Nc4ccc(Oc5ccc(Cl)cc5)cc4)ncnc32)c1 | inactive: -10.6%
18 | Cc1ccc(CNC(=O)CCCCn2c(=O)c3ccccc3n(Cc3c(C)cc(C)cc3C)c2=O)cc1 | inactive: -8.75%
19 | COc1cccc(NC(=O)CSC2=Nc3ccccc3C3=NC(CC(=O)NCCc4ccccc4)C(=O)N23)c1 (stereo not given) | inactive: -12.7%
20 | CCOC(=O)c1ccccc1NC(=O)Cn1c(=O)n(Cc2nc(-c3ccccc3)no2)c(=O)c2ccccc21 | inactive: -7.77%
21 | COc1ccccc1N1CCN(C(=O)Cn2ncc3c([nH]c4ccccc43)c2=O)CC1 | inactive: -0.634%
22 | O=C(CCc1nc(CN2CCN(S(=O)(=O)c3ccc(F)cc3)CC2)no1)N1CCCCC1 | inactive: -6.95%
23 | COc1cccc(NC(=O)CSC2=Nc3ccccc3N=C(c3ccc(F)cc3)C2)c1 | inactive: -18.5%
24 | O=C(c1ccc2c(c1)N(Cc1ccccc1F)C(=O)c1ccccc1S2(=O)=O)N1CCCCC1 | inactive: -0.884%

Row | SMILES | activity change, negative = inhibition
25 | C[C@]12C[C@H](O)[C@H]3[C@@H](CCC4=CC(=O)CC[C@@]43C)[C@@H]1CC[C@@H]2C(=O)CO | inactive: 0.262%
26 | CCc1ccc(C(=O)c2cn(CC(=O)NCCc3ccc(OC)c(OC)c3)c3nc(C)ccc3c2=O)cc1 | inactive: -9.96%
27 | O=c1nc2sc3ccccc3n2c(=O)n1-c1ccc(Cl)c(Cl)c1 | inactive: -13.7%
28 | Cc1ccc(NC(=O)c2cccc(N(C)C)c2)cc1NC(=O)c1ccc(O)cc1 | inactive: 8.13%
29 | COc1ccccc1NC(=O)Cn1c(=O)n(-c2cccc(C(C)=O)c2)c(=O)c2c3c(sc21)CN(C(C)=O)CC3 | inactive: -6.62%
30 | CCN1CCN(C(=O)c2cnn(-c3ccc(F)cc3)c2-n2cccc2)CC1 | inactive: -27.1%
31 | Cc1ccc(C2C=C(c3ccc(Cl)cc3)Nc3nc(NS(=O)(=O)c4ccccc4)nn32)cc1 (stereo not given) | inactive: -11.2%
32 | O=C(CCC1N=C2c3ccccc3N=C(SCC(=O)Nc3ccccc3F)N2C1=O)NCc1ccccc1 (stereo not given) | inactive: -2.16%
33 | COc1ccccc1-c1noc(-c2ccc(N3CCC(C)CC3)c([N+](=O)[O-])c2)n1 | inactive: 32.7%
34 | COc1cc(C(=O)Nc2cc3c(cc2C)n(C)c(=O)c(=O)n3C)cc(OC)c1OC | inactive: 6.42%
35 | CCC(=O)N1CCc2cc(S(=O)(=O)NC(Cc3ccccc3)C(=O)Nc3ccc(C)cc3)ccc21 (stereo not given) | inactive: -23.3%
36 | Cc1ccc(NC(=O)c2sc3nc(-c4cc5ccccc5oc4=O)[nH]c(=O)c3c2C)c(C)c1 | inactive: 7.16%
37 | O=C(CC1Sc2ccc(C(F)(F)F)cc2NC1=O)Nc1ccc(Cl)c(C(F)(F)F)c1 (stereo not given) | inactive: -9.3%
38 | CCOc1ccc(-n2c(SCc3ccc(C(=O)OC)o3)nc3c([nH]c4ccccc43)c2=O)cc1 | inactive: -15.5%
39 | CCN1C(=O)c2ccccc2Sc2ccc(NC(C)=O)cc21 | inactive: -7.93%
40 | COc1cc(C(=O)Nc2cc(C)ccc2OCc2cc(=O)n3c(C)csc3n2)cc(OC)c1OC | inactive: 4.69%
41 | O=C(Nc1ccc(Br)cc1F)c1cc(S(=O)(=O)NCc2ccc(F)cc2)ccc1F | inactive: -31.7%
42 | COc1ccc(NC(=O)c2cc3c(s2)-c2c(C)cccc2OC3)c(OC)c1 | inactive: -6.12%
43 | CCCCNc1nc(Oc2ccc(=O)[nH]n2)nc(N(C)C)n1 | inactive: -10.8%
44 | C=C(C)Cn1c(=O)c2c(nc3n2CCN3c2ccc(CC)cc2)n(C)c1=O | inactive: 0.0466%
45 | CCc1nn(CC(=O)NCCCN(CC)CC)c(=O)c2cc3sc(C)cc3n12 | inactive: -8.1%
46 | CSc1ncc(C(=O)Nc2ccccc2C(=O)c2ccccc2)c(C(F)(F)F)n1 | inactive: -11.2%
47 | Fc1ccc(-n2cc(-c3ccccc3)c3c(NC4CCCCC4)ncnc32)cc1 | inactive: -21.8%
48 | Cc1ccc(-n2ncc3c(NCCCN4CCOCC4)ncnc32)cc1 | inactive: -5.52%

Row | SMILES | activity change, negative = inhibition
49 | COc1cccc(-n2c(=O)c3c(C)c(C(=O)N(C)C)sc3n(Cc3ccc(F)cc3Cl)c2=O)c1 | inactive: -0.439%
50 | CCn1c2ccccc2c2nnc(N3CCN(c4cc(C)ccc4C)CC3)nc21 | inactive: 3.56%
51 | CCOc1ccccc1NC(=O)c1cc2c(Cl)nc3ccccc3c2s1 | inactive: 1.09%
52 | COc1ccc(NC(=O)C2Cc3ccccc3N2C(=O)c2ccccc2)c(OC)c1 (stereo not given) | inactive: 0%
53 | CCN(CCCNC(=O)c1c(C)oc2ncn(CC(C)C)c(=O)c12)Cc1ccccc1 | inactive: 9.98%
54 | COc1ccc(N(Cc2cccs2)C(=O)COc2cccc(Cl)c2)cc1 | inactive: -29.3%
55 | Cc1ccc(Cl)cc1NC(=O)c1oc2c(c1C)-c1[nH]ncc1CC2 | inactive: 57.2%
56 | Cn1c(=O)n(-c2ccc(F)c(Cl)c2)c(=O)c2sc3ccccc3c21 | inactive: -7.29%
57 | CCC1CCCCN1C(=O)c1ccc2c(c1)N(Cc1cccc(Cl)c1)C(=O)c1ccccc1S2(=O)=O (stereo not given) | inactive: -55.4%
58 | CCOC(=O)c1cnc2c(Cl)cccc2c1NCCN1CCOCC1 | inactive: -2.04%
59 | CCOc1cccc2cc(-c3nc(-c4ccccc4C)no3)c(=O)oc12 | inactive: 45.5%
60 | Cc1ccc(Oc2c(C(F)(F)F)oc3c(CN4CCCCC4)c(O)ccc3c2=O)cc1 | inactive: -41.6%
61 | Cc1cc(F)ccc1NC(=O)CCS(=O)(=O)c1ccc2c(c1)NC(=O)CO2 | inactive: -5.85%
62 | O=C(Nc1ccc(Cl)cc1)C1CCCN(S(=O)(=O)c2ccc3[nH]c(=O)ccc3c2)C1 (stereo not given) | inactive: -27.4%
63 | CCOC(=O)c1ccccc1NC(=O)CSc1cn(CC(=O)N2CCCCC2)c2ccccc12 | inactive: -0.878%
64 | Cc1nc2c(-c3ccccc3)c(C)nn2c(C)c1CCC(=O)NC(C)c1ccccc1 (stereo not given) | inactive: -29%
65 | COc1cc(Cl)cn2c(-c3cccc(NC4CNC4)n3)cnc12 | inactive: -27.8%
66 | COc1cccc(CNC(=O)C2CCCN(S(=O)(=O)c3ccc4c(ccn4C)c3)C2)c1 (stereo not given) | inactive: -20%
67 | CCOC(=O)c1cccc(NC(=O)c2oc3c(c2C)-c2[nH]ncc2CC3)c1 | inactive: 42.2%
68 | Nc1ccn([C@@H]2O[C@H](CO)[C@@H](O)C2O)c(=O)n1 (stereo not given in full) | inactive: -3.52%
69 | CCc1ccccc1NS(=O)(=O)c1ccc2[nH]cc(C(=O)N3CCCCC3)c(=O)c2c1 | inactive: 1.82%
70 | COc1cc(CN(C(=O)Nc2ccccc2)c2ccccn2)cc(OC)c1OC | inactive: 0.975%
71 | CC(C)CCNC(=O)c1cccc(Nc2nc3ccccc3n3nnnc23)c1 | inactive: -11.7%
72 | CCCC(=O)Nc1cc(C)c(O)c(-c2nc3ncccc3o2)c1 | inactive: -10.5%

Row | SMILES | activity change, negative = inhibition
73 | Cc1cc(NC(=O)c2ccc(Br)o2)cc(-c2nc3ccccc3o2)c1O | inactive: -11.7%
74 | CCCCNC(=O)C1CCCN(Cc2nc(-c3ccc(Cl)cc3)oc2C)C1 (stereo not given) | inactive: -0.283%
75 | COc1ccc(NC(=O)C(NS(=O)(=O)c2ccc3c(c2)CCCC(=O)N3)C(C)C)c(OC)c1 (stereo not given) | inactive: -22%
76 | Cc1cc(C)c(NC(=O)CSc2ccnc(=O)[nH]2)c(C)c1 | inactive: -6.7%
77 | Cc1c(Cl)cccc1NC(=O)CSc1ncnc2c1sc1ccccc12 | inactive: 7.35%
78 | Cc1cccc(CNC(=O)c2oc3c(c2C)-c2nn(Cc4ccccc4Cl)cc2CC3)c1 | inactive: -28.6%
79 | Cc1cc(OCC(=O)Nc2ccc(-c3nc4cc(Cl)ccc4o3)cc2)cc(C)c1Cl | inactive: 21.2%
80 | NS(=O)(=O)c1ccc(CCNC(=O)C2COc3ccccc3C2)cc1 (stereo not given) | inactive: -14%
81 | CCc1ccc(C2CC(=O)c3c([nH]c(C(=O)OCC4CCCCC4)c3C)C2)cc1 (stereo not given) | inactive: -0.592%
82 | Cc1ccc(-n2ncc3c(N4CCCCCC4)ncnc32)cc1 | inactive: -90.3%
83 | c1ccc(-n2ncc3c(NC4CCCC4)ncnc32)cc1 | inactive: 28.5%
84 | COc1ccc(NS(=O)(=O)c2cc3[nH]c(=O)c(=O)[nH]c3cc2C)cc1Cl | inactive: 3.8%
85 | CCC(=O)N1CCc2cc(Br)cc(S(=O)(=O)CCC(=O)NCCc3ccc(OC)c(OC)c3)c21 | inactive: 2.27%
86 | CCOc1ccc(/C=C/c2nc(C#N)c(N3CCN(c4ccc(OC)cc4)CC3)o2)cc1 | inactive: -2.42%
87 | Cn1cc(S(=O)(=O)N2CCCCCC2)cc1C(=O)N1CCN(c2ccc(F)cc2)CC1 | inactive: -26.6%
88 | Cc1ccc(NC(=O)Cc2c(C(=O)O)c(C)cn2C)cc1Cl | inactive: 4.06%
89 | CC(C)OCCCn1c(SCc2ccccc2C#N)nc2c(sc3ccccc32)c1=O | inactive: -13.2%
90 | CCN(CC)CC(C)CNC(=O)CN1C(=O)CSc2ccc(S(=O)(=O)N3CCOCC3)cc21 (stereo not given) | inactive: -10.8%
91 | CCN(CC)CCOc1ccc2c(c1)C(=O)c1cc(OCCN(CC)CC)ccc1-2 | inactive: 0.875%
92 | COc1cc(OC)c(NC(=O)CN2C(=O)CCn3nc(-c4cccn4C)cc32)cc1Cl | inactive: 0%
93 | NS(=O)(=O)c1ccc(NC(=O)CSc2ccc3ccccc3n2)cc1 | inactive: -23.2%
94 | Cc1ccc(S(=O)(=O)c2cn(CC(=O)Nc3cccc(C)c3)c3cc4c(cc3c2=O)OCO4)cc1 | inactive: -10.6%
95 | CC1CCC(C(=O)NC(C(=O)OCC(=O)c2ccc(Br)cc2)C(C)C)CC1 (stereo not given) | inactive: -25.6%
